# Results as given in the supplement of paper PMC12217912.
# The other results are listed elsewhere or left out. The full chains were built here from the parent and the listed change. Values near 0.05 are background.
# B1: TEV protease; numbered along this chain (parent)
# chain: MGESLFKGPRDYNPISSSICHLTNESDGHTTSLYGIGFGPFIITNKHLFRRNNGTLVVQSLHGVFKVKDTTTLQQHLVDGRDMIIIRMPKDFPPFPQKLKFREPQREERICLVTTNFQTKSMSSMVSDTSCTFPSGDGIFWKHWIQTKDGQCGSPLVSTRDGFIVGIHSASNFTNTNNYFTSVPKNFMELLTNQEAQQWVSGWRLNADSVLWGGHKVFMVKPEEPFQPVKEATQL
# Variants of: B1
# Test: raw area under fraction-flipped curve 0-4 h after induction (AUC4h, not background-subtracted), DNA-recorder readout of cleavage of the substrate (dimensionless); higher = more cleavage of the substrate by the protease variant
# Conditions: temperature: 34 °C; time window: 0-4 h after rhamnose induction
# Description: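 In vivo DNA recorder in E. coli TOP10(DE3) ΔrhaA at 34 °C. Each TEVp single-site mutant (parent TEVp 0) is paired with a single-site variant of the 7-mer TEVs (canonical ENLYFQ|S). The substrate sits between flexible linkers in a Bxb1-sfGFP-TEVs-SsrA fusion, so cleavage stabilises Bxb1 and speeds flipping of a recombination array, read by NGS. The value is the raw area under the fraction-flipped curve over 0-4 h after rhamnose induction (AUC4h), with ≥20 reads per time point. It is not background-subtracted; inactive controls average about 0.047.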
# 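Note: Bxb1 expression induced with 0.2% (w/v) L-rhamnose at OD600 near 0.5, cultures sampled hourly, flipped fraction per protease–substrate barcode pair counted by paired-end Illumina sequencing.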
Variant,area with substrate ENAYFQS,area with substrate ENCYFQS,area with substrate ENDYFQS,area with substrate ENFYFQS,area with substrate ENGYFQS,area with substrate ENKYFQS,area with substrate ENNYFQS,area with substrate ENPYFQS,area with substrate ENRYFQS,area with substrate ENSYFQS,area with substrate ENTYFQS,area with substrate ENYYFQS,area with substrate ENEYFQS,area with substrate ENHYFQS,area with substrate ENQYFQS,area with substrate ENVYFQS,area with substrate ENWYFQS,area with substrate ENIYFQS,area with substrate ENMYFQS
MGESLFKGPRDYNPISSSICHLTNESDGHTTSLYGIGFGPFIITNKHLFRRNNGTLVVQSLHGVFKVKDTTTLQQHLVDGRDMIIIRMPKDFPPFPQKLKFREPQREERICLVTTNFQTKSMSSMVSDTSCTFPSGDGIFWKHWIQTKDGQCGSPLVSTRDGFIVGIHSASNFTNTNNYFTSVPKNFMELLTNQEAQQWVSGWRLNADSVLWGDHKVFMVKPEEPFQPVKEATQL [G214D],0,0.0655,0.0641,0.0564,0.0715,0.0445,0.0614,0.062,0.0679,0.0848,0.0548,0.0518,–,–,–,–,–,–,–
MGESLFKGPRDYNPISSSICHLTNESDGHTTSLYGIGFGPFIITNKHLFRRNNGTLVVQSLHGVFKVKDTTTLQQHLVDGRDMIIIRMPKDFPPFPQKLKFREPQREERICLVTTNFQTKSMSSMVSDTSCTFPSGDGIFWKHWIQTKDGQCGSPLVSTRDGFIVGIHSASNFTNTNNYFTSVPKNFMELLTNQEAQQWVSGWRLNADSNLWGGHKVFMVKPEEPFQPVKEATQL [V210N],0.065,0.0519,0.042,0.0608,–,0.0637,0.0601,0.0628,0.0584,0.0718,0.067,–,0.0353,0.0579,0.0594,0.0651,0.064,–,–
MGESLFKGPRDYNPISSSICHLTNESDGHTTSLYGIGFGPFIITNKHLFRRNNGTLVVQSLHGVFKVKDTTTLQQHLVDGRDMIIIRMPKDFPPFPQKLKFREPQREERICLVTTNFQTKSMSSMVSDTSCTFPSGDGIFWKHWIQTKDGQCGSPLVSTRDGFIVGIHSASNFTNTNNYFTSVPKNFMELLTNQEAQQWVSGWRLNADSVLWGGHKVFWVKPEEPFQPVKEATQL [M219W],0.0592,–,0.0575,0.063,0.0535,0.0532,0.0614,0.0481,–,0.0535,–,0.0632,0.061,–,0.0645,0.0799,–,0.116,–
MGESLFKGPRDYNPISSSICHLTNESDGHTTSLYGIGFGPFIITNKHLFRRNNGTLVVQSLHGVFKVKDTTTLQQHLVDGRDMIIIRMPKDFPPFPQKLKFREPQREERICLVTTNFQTKSMSSMVSDTSCTFPSGDGIFWKHWIQTKDGQCGSPLVSTRDGFIVGIHSASNFTNTNNYFTSVPKNFMELLTNQEAQQWVSGWRLNADSVLWGGHKVFMVKPYEPFQPVKEATQL [E223Y],0.06,0.0786,0.0634,–,–,0.0694,–,0.0546,0.0669,0.0552,0.0605,0.0571,0.0613,0.0673,0.0629,0.0647,–,0.113,0.0615
MGESLFKGPRDYNPISSSICHLTNESDGHTTSLYGIGFGPFIITNKHLFRRNNGTLVVQSLHGVFKVKDTTTLQQHLVDGRDMIIIRMPKDFPPFPQKLKFREPQREERICLVTTNFQTKSMSSMVSDTSCTFPSGDGIFWKHWIQTKDGQCGSPLVSTRDGFIVGIHSASNFTNTNNYFTSVPKNFMELLTNQEAQQWVSGWRLNADSVLWGGHKVFMVKPNEPFQPVKEATQL [E223N],0.0938,0.0597,0.0669,0.0749,0.0832,0.0644,0.0656,–,–,0.067,0.0612,–,0.061,0.0487,0.0568,0.0706,0.009,0.0419,0.0807
MGESLFKGPRDYNPISSSICHLTNESDGHTTSLYGIGFGPFIITNKHLFRRNNGTLVVQSLHGVFKVKDTTTLQQHLVDGRDMIIIRMPKDFPPFPQKLKFREPQREERICLVTTNFQTKSMSSMVSDTSCTFPSGDGIFWKHWIQTKDGQCGSPLVSTRDGFIVGIHSASNFTNTNNYFTSVPKNFMELLTNQEAQQWVSGWRLNADDVLWGGHKVFMVKPEEPFQPVKEATQL [S209D],0.101,0.0462,–,0.0569,0.0711,–,–,–,–,–,–,–,–,–,–,–,–,–,0.0829
MGESLFKGPRDYNPISSSICHLTNESDGHTTSLYGIGFGPFIITNKHLFRRNNGTLVVQSLHGVFKVKDTTTLQQHLVDGRDMIIIRMPKDFPPFPQKLKFREPQREERICLVTTNFQTKSMSSMVSDTSCTFPSGDGIFWKHWIQTKDGQCGSPLVSTRDGFIVGIHSASNFTNTNNYFTSVPKNFMELLTNQEAQQWVSGWRLNADSVMWGGHKVFMVKPEEPFQPVKEATQL [L211M],0.0612,–,0.0558,–,–,0.0694,0.0538,–,0.0655,0.0522,0.0579,0.0532,0.0677,0.0963,0.0649,0.0761,0.0517,0.109,0.065
MGESLFKGPRDYNPISSSICHLTNESDGHTTSLYGIGFGPFIITNKHLFRRNNGTLVVQSLHGVFKVKDTTTLQQHLVDGRDMIIIRMPKDFPPFPQKLKFREPQREERICLVTTNFQTKSMSSMVSDTSCTFPSGDGIFWKHWIQTKDGQCGSPLVSTRDGFIVGIHSASNFTNTNNYFTSVPKNFMELLTNQEAQQWVSGWRLNADSVLWGGHKVFMVKIEEPFQPVKEATQL [P222I],0.0624,0.0594,0.0738,0.0187,–,0.0689,–,–,–,0.0592,0.0627,–,0.0661,–,0.0508,0.0404,–,0.0788,–
MGESLFKGPRDYNPISSSICHLTNESDGHTTSLYGIGFGPFIITNKHLFRRNNGTLVVQSLHGVFKVKDTTTLQQHLVDGRDMIIIRMPKDFPPFPQKLKFREPQREERICLVTTNFQTKSMSSMVSDTSCTFPSGDGIFWKHWIQTKDGQCGSPLVSTRDGFIVGIHSASNFTNTNNYFTSVPKNFMELLTNQEAQQWVSGWRLNADSVLWGGHKVFMVKAEEPFQPVKEATQL [P222A],0.0522,0.0643,–,0.0814,0.0524,0.0621,–,0.0591,–,0.0637,–,0.0547,0.0587,–,0.0588,–,–,–,0.0608
